The supplement of paper PMC10369915
The other results are listed elsewhere or left out. Cut-off read from the data, not from the text of the source: active = 3.2 or more and inactive = the rest. The signal is at background level for most entries.

What was measured:
Assay in all cases: enrichment score (SH2-bound / input frequency) (ratio); bacterial display of known human phosphotyrosine sites (pTyr-Var adds point mutants) read by sequencing; higher = stronger binding; tyrosines were phosphorylated by kinases first
Settings in all cases: peptide library: Human pTyr
[1] = target: SHP2 C-SH2 domain E139D
[2] = target: SHP2 C-SH2 domain wild-type
[3] = target: SHP2 N-SH2 domain L43F
[4] = target: SHP2 N-SH2 domain T42A
[5] = target: SHP2 N-SH2 domain T52S
[6] = target: SHP2 N-SH2 domain wild-type

Measured: enrichment score
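Note: displayed peptides selected on beads carrying the immobilized SH2 domain, with library peptides lacking any tyrosine serving as negative controls.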

SWEVIEGYRAQHSQH [DHE3_HUMAN_135]
inactive: [1] 0.666 | [2] 0.63 | [3] 0.61 | [4] 0.656 | [5] 0.706 | [6] 0.75

IVHSGLAYTMERSAR [DHE3_HUMAN_512]
inactive: [1] 0.787 | [2] 0.684 | [3] 0.903 | [4] 0.718 | [5] 0.869 | [6] 0.878

KNTSDFVYLKVAKPT [DLG1_HUMAN_399]
inactive: [1] 0.582 | [2] 0.519 | [3] 0.62 | [4] 0.508 | [5] 0.889 | [6] 0.802

KFIEAGQYNDNLYGT [DLG2_HUMAN_750]
inactive: [1] 0.85 | [2] 0.725 | [3] 0.577 | [4] 0.394 | [5] 0.818 | [6] 0.594

KFIEAGQYNDNLAGT [DLG2_HUMAN_750_YA]
inactive: [1] 0.609 | [2] 0.429 | [3] 0.641 | [4] 0.395 | [5] 0.601 | [6] 0.828

NEVDGQDYHFVVSRE [DLG3_HUMAN_673]
inactive: [1] 0.547 | [2] 0.54 | [3] 0.802 | [4] 0.724 | [5] 0.588 | [6] 0.804

KNTADVVYLKVAKPS [DLG4_HUMAN_240_YA]
inactive: [1] 0.814 | [2] 0.866 | [3] 0.65 | [4] 0.793 | [5] 0.768 | [6] 0.658

AEIDGRDYHFVSSRE [DLG4_HUMAN_580_YA]
inactive: [1] 0.613 | [2] 0.667 | [3] 0.599 | [4] 0.454 | [5] 0.764 | [6] 1.31

IEDLSGPYIWVPARE [DLG4_HUMAN_715]
inactive: [1] 0.745 | [2] 0.874 | [3] 0.841 | [4] 0.706 | [5] 0.754 | [6] 1.12

ELKMLDKYSHYLAAE [DOC11_HUMAN_248]
inactive: [1] 1.34 | [2] 2.03 | [3] 0.773 | [4] 0.876 | [5] 0.85 | [6] 0.795

YISKAEEYFLLKSRS [ACHD_HUMAN_390]
inactive: [1] 1.73 | [2] 1.63 | [3] 1.22 | [4] 1.28 | [5] 1.83 | [6] 1.97

ELKMLDKYSHALAAE [DOC11_HUMAN_248_YA]
inactive: [1] 1.07 | [2] 0.745 | [3] 0.8 | [4] 0.716 | [5] 0.892 | [6] 0.771

DLVPRKEYAMVDPED [DOCK4_HUMAN_167]
inactive: [1] 1.33 | [2] 0.87 | [3] 0.968 | [4] 1.09 | [5] 1.38 | [6] 1.28

METVPQLYDFTETHN [DOCK7_HUMAN_1257]
inactive: [1] 0.518 | [2] 0.451 | [3] 0.684 | [4] 0.513 | [5] 0.684 | [6] 0.79

VQRKKPLYWDLAEHA [DOK1_HUMAN_337_YA]
active: [6] 3.37
inactive: [1] 2.71 | [2] 2.92 | [3] 2.68 | [4] 2.68 | [5] 2.98

AISKAEEYFLLKSRS [ACHD_HUMAN_390_YA]
inactive: [1] 0.92 | [2] 0.782 | [3] 1.36 | [4] 0.912 | [5] 0.896 | [6] 0.846

ANPATDDYAVPPPRS [DOK1_HUMAN_409_YA]
inactive: [1] 0.529 | [2] 0.435 | [3] 0.595 | [4] 0.568 | [5] 0.565 | [6] 0.424

NDLASGLYASVCKRA [DOK3_HUMAN_381]
inactive: [1] 1.39 | [2] 1.03 | [3] 1.03 | [4] 1.2 | [5] 1.36 | [6] 1.18

SVSPDLKYVLLAYDV [DPP10_HUMAN_138]
inactive: [1] 1.59 | [2] 1.86 | [6] 2.08
active: [3] 7.81 | [4] 9.19 | [5] 5.58

SVSPDLKYVLLAADV [DPP10_HUMAN_138_YA]
inactive: [1] 0.999 | [2] 1.11 | [3] 2.78 | [4] 2.72 | [5] 2.09 | [6] 0.82

INDDQSLYADVALED [DPYL1_HUMAN_32_YA]
inactive: [1] 1.29 | [2] 0.987 | [3] 1.11 | [4] 1.18 | [5] 1.4 | [6] 1.41

SHKSAVEYNIFEGME [DPYL1_HUMAN_431]
inactive: [1] 1.14 | [2] 1.12 | [3] 1.07 | [4] 1.12 | [5] 0.901 | [6] 0.943

GGVKKPTYDPVSEDQ [ACK1_HUMAN_518]
inactive: [1] 1.08 | [2] 1.06 | [3] 0.932 | [4] 1.05 | [5] 1.05 | [6] 0.95

NEVTPRIYVGNASVA [DUSP3_HUMAN_38]
inactive: [1] 0.597 | [2] 0.637 | [3] 0.741 | [4] 0.664 | [5] 0.72 | [6] 0.754

VGETKVIYHLDEEET [DVL2_HUMAN_18]
inactive: [1] 1.1 | [2] 0.907 | [3] 1.02 | [4] 1.05 | [5] 1.08 | [6] 0.974

VTLNMEKYNFLGISI [DVL2_HUMAN_275]
inactive: [1] 2.16 | [2] 2.12 | [3] 1.77 | [4] 2.12 | [5] 2.16 | [6] 2.6

ERGDGGIYIGSIMKG [DVL2_HUMAN_295]
inactive: [1] 1.01 | [2] 0.727 | [3] 0.711 | [4] 0.872 | [5] 0.898 | [6] 1.1

SDVVDWLYHHVEGFP [DVL2_HUMAN_463]
inactive: [1] 1.1 | [2] 0.938 | [3] 0.876 | [4] 0.943 | [5] 1.11 | [6] 0.967

VPINLRVYSPHVLNL [DYN1_HUMAN_125]
inactive: [1] 0.631 | [2] 0.584 | [3] 0.709 | [4] 0.589 | [5] 0.687 | [6] 0.561

DGYDDDNYDYIVKNG [DYR1A_HUMAN_145]
inactive: [1] 1.16 | [2] 0.976 | [3] 1.25 | [4] 1.05 | [5] 1.11 | [6] 0.909

KKVSSTHYYLLPERP [ACK1_HUMAN_859]
inactive: [1] 1.59 | [2] 1.87 | [3] 1.83 | [4] 1.44 | [5] 1.81 | [6] 1.88

GEKWMDRYEIDSLIG [DYR1A_HUMAN_159]
inactive: [1] 0.721 | [2] 0.598 | [3] 0.59 | [4] 0.527 | [5] 0.546 | [6] 0.742

FGQVVKAYDHQTQEL [DYR1B_HUMAN_129]
inactive: [1] 0.777 | [2] 0.57 | [3] 0.703 | [4] 0.486 | [5] 0.803 | [6] 0.667

KKVSSTHYALLPERP [ACK1_HUMAN_859_YA]
inactive: [1] 0.993 | [2] 1.74 | [3] 0.936 | [4] 1.12 | [5] 1.16 | [6] 1.16

EHQRVATYIQSRFAR [DYRK2_HUMAN_382_YA]
inactive: [1] 2.23 | [2] 2.12 | [3] 1.75 | [4] 1.86 | [5] 2.65 | [6] 2.45

EAQKLATYIQSRFAR [DYRK3_HUMAN_369_YA]
inactive: [1] 1.65 | [2] 1.98 | [3] 1.57 | [4] 1.42 | [5] 1.6 | [6] 2.2
